The text below walks through data of a collection of fitness landscapes (doi:10.1016/j.celrep.2020.107928).

In all, about 81,000 sequences were measured (“one-hybrid fitness for binding parS DNA”: median about -0.17, highest 2% from about 0.51 on). Some of the results follow.

B1: Caulobacter ParB omega fusion; a variant is named by its letters at X, in order, B8GW30 (parent)
chain: MESVVVGEPGMSEGRRGLGRGLSALLGEVDAAPAQAPGEQLGGSREAPIEILQRNPDQPRRTFREEDLEDLSNSIREKGVLQPILVRPSPDTAGEYQIVAGERAWRAAQRAGLKTVPIMVRELDDLAVLEIGIIENVQRADLNVLEEALSYKVLMEKFERTQENIAQTIGKSXSHVANXMRLLXLPDEVQSYLVSGELTAXHARAIAAAADPVALAKQIIEGGLSVRETEALARKAPNLSAGKSKGGRPPRVKDTDTQALESDLSSVLGLDVSIDHRGSTGTLTITYATLEQLDDLCNRLTRGI

In this assay the parent is B1. The assay can be described thus: one-hybrid fitness for binding parS DNA (scaled: cognate 1, non-cognate 0); higher = stronger binding. The settings on record: with parS DNA site. The procedure, abridged: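 Fitness here means the log change in variant-to-wild-type read ratio between plasmids sequenced before and after selection. That scale was set so cognate equals 1 and non-cognate equals 0. The selection was a bacterial one-hybrid screen of Caulobacter ParB libraries, four specificity codons randomised, in E. coli USO carrying a HIS3 reporter with the site 19 bp from the promoter, grown 48 hours at 37°C on M9-minus-histidine with 0.1 mM IPTG and 5 mM 3-AT.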
MEYY: the “one-hybrid fitness for binding parS DNA” value was no more than 0.2.

IHER: the “one-hybrid fitness for binding parS DNA” value was no more than 0.2.

On to GVLS, for which the “one-hybrid fitness for binding parS DNA” value was no more than 0.2.

With LRRS, the “one-hybrid fitness for binding parS DNA” value is no more than 0.2.

As for VATQ, the “one-hybrid fitness for binding parS DNA” value was no more than 0.2.

Take FFGC: the “one-hybrid fitness for binding parS DNA” value was no more than 0.2.

For the variant RAWK, the “one-hybrid fitness for binding parS DNA” value was no more than 0.2.

In the case of PSMD, the “one-hybrid fitness for binding parS DNA” value is no more than 0.2.

PFRT: the “one-hybrid fitness for binding parS DNA” value is no more than 0.2.

In the case of HHGG, the “one-hybrid fitness for binding parS DNA” value was no more than 0.2.

On to ARDM, for which the “one-hybrid fitness for binding parS DNA” value was no more than 0.2.

Turning to IICT, the “one-hybrid fitness for binding parS DNA” value is no more than 0.2.

For the variant VMIR, the “one-hybrid fitness for binding parS DNA” value is no more than 0.2.

SMSR: the “one-hybrid fitness for binding parS DNA” value is no more than 0.2.

In the case of YVSA, the “one-hybrid fitness for binding parS DNA” value is no more than 0.2.

For the variant VHVT, the “one-hybrid fitness for binding parS DNA” value was no more than 0.2.

Turning to CSFG, the “one-hybrid fitness for binding parS DNA” value was no more than 0.2.

Take VTMS: the “one-hybrid fitness for binding parS DNA” value was no more than 0.2.

Regarding RMSV, the “one-hybrid fitness for binding parS DNA” value was no more than 0.2.

As to VQSI, the “one-hybrid fitness for binding parS DNA” value was no more than 0.2.

On to FNCR, for which the “one-hybrid fitness for binding parS DNA” value was no more than 0.2.

ANTG: the “one-hybrid fitness for binding parS DNA” value is no more than 0.2.

Take NGSA: the “one-hybrid fitness for binding parS DNA” value is no more than 0.2.

Regarding GDDA, the “one-hybrid fitness for binding parS DNA” value is no more than 0.2.

For QYWG, the “one-hybrid fitness for binding parS DNA” value was no more than 0.2.

QWHC: the “one-hybrid fitness for binding parS DNA” value is no more than 0.2.

For the variant PFAQ, the “one-hybrid fitness for binding parS DNA” value is no more than 0.2.

Consider QVCQ, for which the “one-hybrid fitness for binding parS DNA” value was no more than 0.2.

Take YHTC: the “one-hybrid fitness for binding parS DNA” value is no more than 0.2.

On to PFHM, for which the “one-hybrid fitness for binding parS DNA” value was no more than 0.2.

With SGHA, the “one-hybrid fitness for binding parS DNA” value was no more than 0.2.

For the variant REEE, the “one-hybrid fitness for binding parS DNA” value was no more than 0.2.

Take KLKV: the “one-hybrid fitness for binding parS DNA” value is no more than 0.2.

Consider QRYP, for which the “one-hybrid fitness for binding parS DNA” value is no more than 0.2.

MKAS: the “one-hybrid fitness for binding parS DNA” value is no more than 0.2.

In the case of VSEN, the “one-hybrid fitness for binding parS DNA” value was no more than 0.2.

Take VCVL: the “one-hybrid fitness for binding parS DNA” value was no more than 0.2.

As for MQSI, the “one-hybrid fitness for binding parS DNA” value was no more than 0.2.

With PAKQ, the “one-hybrid fitness for binding parS DNA” value is no more than 0.2.

Take RFGE: the “one-hybrid fitness for binding parS DNA” value was no more than 0.2.

On to KARY, for which the “one-hybrid fitness for binding parS DNA” value was no more than 0.2.

On to HMVR, for which the “one-hybrid fitness for binding parS DNA” value is no more than 0.2.

With PVSG, the “one-hybrid fitness for binding parS DNA” value was no more than 0.2.

Turning to PASE, the “one-hybrid fitness for binding parS DNA” value is no more than 0.2.

TIIS: the “one-hybrid fitness for binding parS DNA” value was no more than 0.2.

As to ATKK, the “one-hybrid fitness for binding parS DNA” value was no more than 0.2.

With QMNR, the “one-hybrid fitness for binding parS DNA” value was no more than 0.2.

As to VLVT, the “one-hybrid fitness for binding parS DNA” value was no more than 0.2.

On to RCDD, for which the “one-hybrid fitness for binding parS DNA” value is no more than 0.2.

For the variant QKKA, the “one-hybrid fitness for binding parS DNA” value is no more than 0.2.

For the variant RFVP, the “one-hybrid fitness for binding parS DNA” value was no more than 0.2.

Consider YAMK, for which the “one-hybrid fitness for binding parS DNA” value was no more than 0.2.

For the variant PQAM, the “one-hybrid fitness for binding parS DNA” value is no more than 0.2.

Consider EFSG, for which the “one-hybrid fitness for binding parS DNA” value was no more than 0.2.

Take RYKH: the “one-hybrid fitness for binding parS DNA” value is no more than 0.2.

Regarding SFTN, the “one-hybrid fitness for binding parS DNA” value was no more than 0.2.

On to MYFT, for which the “one-hybrid fitness for binding parS DNA” value was no more than 0.2.

Consider MSPV, for which the “one-hybrid fitness for binding parS DNA” value was no more than 0.2.

On to RFQW, for which the “one-hybrid fitness for binding parS DNA” value was no more than 0.2.

On to VKKW, for which the “one-hybrid fitness for binding parS DNA” value is no more than 0.2.

Take RFDL: the “one-hybrid fitness for binding parS DNA” value is no more than 0.2.

As to QLTC, the “one-hybrid fitness for binding parS DNA” value was no more than 0.2.

As for ESRY, the “one-hybrid fitness for binding parS DNA” value was no more than 0.2.

Take VRYF: the “one-hybrid fitness for binding parS DNA” value was no more than 0.2.

Consider SKDI, for which the “one-hybrid fitness for binding parS DNA” value was no more than 0.2.

QWRY: the “one-hybrid fitness for binding parS DNA” value is no more than 0.2.

For the variant LHPS, the “one-hybrid fitness for binding parS DNA” value was no more than 0.2.

As to VGPT, the “one-hybrid fitness for binding parS DNA” value is no more than 0.2.

Regarding SSQM, the “one-hybrid fitness for binding parS DNA” value was no more than 0.2.

For the variant RDDY, the “one-hybrid fitness for binding parS DNA” value was no more than 0.2.

For DTHF, the “one-hybrid fitness for binding parS DNA” value was no more than 0.2.

Regarding TVKG, the “one-hybrid fitness for binding parS DNA” value was no more than 0.2.

PRWA: the “one-hybrid fitness for binding parS DNA” value is no more than 0.2.

In the case of KQGK, the “one-hybrid fitness for binding parS DNA” value was no more than 0.2.

For the variant LSSM, the “one-hybrid fitness for binding parS DNA” value is no more than 0.2.

As to KYVI, the “one-hybrid fitness for binding parS DNA” value is no more than 0.2.

Consider QCDR, for which the “one-hybrid fitness for binding parS DNA” value was no more than 0.2.

RCRV: the “one-hybrid fitness for binding parS DNA” value was no more than 0.2.

Regarding NPYL, the “one-hybrid fitness for binding parS DNA” value is no more than 0.2.

YDNA: the “one-hybrid fitness for binding parS DNA” value was no more than 0.2.

As to RWMP, the “one-hybrid fitness for binding parS DNA” value is no more than 0.2.

Turning to MSGS, the “one-hybrid fitness for binding parS DNA” value is no more than 0.2.

As to RCNG, the “one-hybrid fitness for binding parS DNA” value stood at 0.966.

AMRR: the “one-hybrid fitness for binding parS DNA” value is no more than 0.2.

With VNVS, the “one-hybrid fitness for binding parS DNA” value was no more than 0.2.

With RGFE, the “one-hybrid fitness for binding parS DNA” value was no more than 0.2.

In the case of HINC, the “one-hybrid fitness for binding parS DNA” value was no more than 0.2.

Turning to WLFS, the “one-hybrid fitness for binding parS DNA” value was no more than 0.2.

For CELG, the “one-hybrid fitness for binding parS DNA” value is no more than 0.2.

With LYSD, the “one-hybrid fitness for binding parS DNA” value is no more than 0.2.

For KLTF, the “one-hybrid fitness for binding parS DNA” value is no more than 0.2.

With HRFR, the “one-hybrid fitness for binding parS DNA” value was no more than 0.2.

Consider DRHI, for which the “one-hybrid fitness for binding parS DNA” value was no more than 0.2.

Regarding MPTN, the “one-hybrid fitness for binding parS DNA” value was no more than 0.2.

On to AAKA, for which the “one-hybrid fitness for binding parS DNA” value is no more than 0.2.

With DGWT, the “one-hybrid fitness for binding parS DNA” value was no more than 0.2.

As to AAIS, the “one-hybrid fitness for binding parS DNA” value was no more than 0.2.

Consider RQWI, for which the “one-hybrid fitness for binding parS DNA” value is no more than 0.2.

In the case of TQRH, the “one-hybrid fitness for binding parS DNA” value was no more than 0.2.

On to IIWR, for which the “one-hybrid fitness for binding parS DNA” value was no more than 0.2.

For the variant SNRP, the “one-hybrid fitness for binding parS DNA” value is no more than 0.2.

With YALW, the “one-hybrid fitness for binding parS DNA” value was no more than 0.2.

KRTI: the “one-hybrid fitness for binding parS DNA” value is no more than 0.2.

As for NNPR, the “one-hybrid fitness for binding parS DNA” value was no more than 0.2.

Turning to YGRS, the “one-hybrid fitness for binding parS DNA” value is no more than 0.2.

Turning to YVPG, the “one-hybrid fitness for binding parS DNA” value is no more than 0.2.

As to IDSR, the “one-hybrid fitness for binding parS DNA” value is no more than 0.2.

For TWWS, the “one-hybrid fitness for binding parS DNA” value was no more than 0.2.

On to EAYV, for which the “one-hybrid fitness for binding parS DNA” value is no more than 0.2.

As for IVTS, the “one-hybrid fitness for binding parS DNA” value was no more than 0.2.

For the variant KMWG, the “one-hybrid fitness for binding parS DNA” value was no more than 0.2.

Regarding RNSQ, the “one-hybrid fitness for binding parS DNA” value is no more than 0.2.

SIED: the “one-hybrid fitness for binding parS DNA” value is no more than 0.2.

Turning to TQPD, the “one-hybrid fitness for binding parS DNA” value is no more than 0.2.

Consider EILT, for which the “one-hybrid fitness for binding parS DNA” value was no more than 0.2.

With RHEQ, the “one-hybrid fitness for binding parS DNA” value worked out at 0.223.

For the variant STSP, the “one-hybrid fitness for binding parS DNA” value is no more than 0.2.

Turning to RAHK, the “one-hybrid fitness for binding parS DNA” value is no more than 0.2.

Regarding PRMS, the “one-hybrid fitness for binding parS DNA” value was no more than 0.2.

Consider AIQV, for which the “one-hybrid fitness for binding parS DNA” value was no more than 0.2.

Take HLPW: the “one-hybrid fitness for binding parS DNA” value was no more than 0.2.

Turning to SNPD, the “one-hybrid fitness for binding parS DNA” value is no more than 0.2.

Regarding HNDY, the “one-hybrid fitness for binding parS DNA” value is no more than 0.2.

Consider DTRM, for which the “one-hybrid fitness for binding parS DNA” value was no more than 0.2.

For the variant LTEF, the “one-hybrid fitness for binding parS DNA” value was no more than 0.2.

With QCHN, the “one-hybrid fitness for binding parS DNA” value was no more than 0.2.

For the variant FLPD, the “one-hybrid fitness for binding parS DNA” value was no more than 0.2.

For QTNC, the “one-hybrid fitness for binding parS DNA” value is no more than 0.2.

For RYRC, the “one-hybrid fitness for binding parS DNA” value was determined as 0.798.

With LKHP, the “one-hybrid fitness for binding parS DNA” value was no more than 0.2.

For the variant MSMP, the “one-hybrid fitness for binding parS DNA” value was no more than 0.2.

Consider ENYV, for which the “one-hybrid fitness for binding parS DNA” value was no more than 0.2.

Regarding PSSR, the “one-hybrid fitness for binding parS DNA” value was no more than 0.2.

For the variant SYFG, the “one-hybrid fitness for binding parS DNA” value was no more than 0.2.

With FRRG, the “one-hybrid fitness for binding parS DNA” value was no more than 0.2.

On to LWHW, for which the “one-hybrid fitness for binding parS DNA” value was no more than 0.2.

Turning to SIRC, the “one-hybrid fitness for binding parS DNA” value was no more than 0.2.

In the case of SNFG, the “one-hybrid fitness for binding parS DNA” value was no more than 0.2.

TRAS: the “one-hybrid fitness for binding parS DNA” value is no more than 0.2.

As for TAWP, the “one-hybrid fitness for binding parS DNA” value is no more than 0.2.

RCPM: the “one-hybrid fitness for binding parS DNA” value came out at 0.203.

VKDD: the “one-hybrid fitness for binding parS DNA” value is no more than 0.2.

RAIT: the “one-hybrid fitness for binding parS DNA” value worked out at 0.682.

For DWPL, the “one-hybrid fitness for binding parS DNA” value is no more than 0.2.

In the case of NGVF, the “one-hybrid fitness for binding parS DNA” value was no more than 0.2.

Regarding GDFV, the “one-hybrid fitness for binding parS DNA” value is no more than 0.2.

In the case of ICKG, the “one-hybrid fitness for binding parS DNA” value is no more than 0.2.

With FDHG, the “one-hybrid fitness for binding parS DNA” value was no more than 0.2.

Consider CING, for which the “one-hybrid fitness for binding parS DNA” value is no more than 0.2.

Turning to RINI, the “one-hybrid fitness for binding parS DNA” value is no more than 0.2.

In the case of IAFR, the “one-hybrid fitness for binding parS DNA” value is no more than 0.2.

As to REGA, the “one-hybrid fitness for binding parS DNA” value was no more than 0.2.

Take FLTL: the “one-hybrid fitness for binding parS DNA” value is no more than 0.2.
